{
  "source": "PubChem BioAssay AID651820",
  "about": "(National Center for Advancing Translational Sciences (NCATS), 2012)",
  "note": "About 12,000 (3.5%) of roughly 340,000 compounds were called active. The shares of active, inactive and inconclusive entries below differ from those in the screen. Calls follow the shape of the dose curve; as a rule, active = well fitted inhibition curve with a large enough effect; inconclusive = small, poorly fitted or top-dose-only effect, or another doubt; inactive = no such curve, though single readings can be large or run the other way. Potencies of inconclusive entries are left out as doubtful fits. % is scaled to controls: 0 for no effect and ±100 for the full control effect; potency is read from the fitted curve at half-maximal effect; tags tell the direction and shape of the fitted curve.",
  "data": [
    {"experiment": "qHTS Assay for Inhibitors of Hepatitis C Virus (HCV)", "conditions": "Huh7.5.1 HCVcc-Cre (HCVcc is cell-culture hepatitis C virus) infection, luciferase reporter, 44 h; activity change, negative = inhibition: at 41.8 µM (top of the series) unless noted", "method_in_brief": "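Infectious HCVcc-Cre (~0.5 moi) was added to cells just after compound, with cells seeded 4 h earlier at 1,000 per well. Luciferase activity after 44 h culture reported infection; substrate was incubated 15 min at room temperature before reading.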", "values": [
      {"smiles": "CCC(=O)Nc1ccc(S(=O)(=O)Nc2cccc(C)c2)cc1OC", "Potency": "inconclusive [inhibitor, single point]"},
      {"smiles": "COc1ccc(Nc2nc(-c3cccc(OC)c3O)nc3ccccc23)cc1", "Potency": "active: 5.62 µM"},
      {"smiles": "CC(C)Cc1nc(N2CCN(C(=O)c3ccco3)CC2)c(C#N)c2c1CCCC2", "Potency": "active: 10 µM"},
      {"smiles": "COc1cccc(-c2csc(N3CCN(C(=S)Nc4cccc(Cl)c4)CC3)n2)c1", "Potency": "inconclusive [inhibitor, single point]"},
      {"smiles": "CCOc1ccccc1CN1CCNC(=O)C1CC(=O)NC1CCCCCC1", "note": "(centres undefined)", "Potency": "inactive"},
      {"smiles": "O=C(CNC(=S)N(Cc1ccccc1)Cc1cccnc1)NC1CCCCC1", "Potency": "inactive"},
      {"smiles": "CCCn1c(NC(=O)CSCC(=O)Nc2cc(C)on2)nc2ccccc21", "Potency": "inconclusive [inhibitor, single point]"},
      {"smiles": "Cc1ccccc1CN1CCC(N2CCC(C(=O)NCC3CCCO3)CC2)CC1", "note": "(centres undefined)", "Potency": "inconclusive [inhibitor, partial curve]"},
      {"smiles": "S=C1SCN(Cc2cccnc2)CN1Cc1ccccc1", "Potency": "inconclusive [inhibitor, single point]"},
      {"smiles": "O=[N+]([O-])c1cccc(/C=N\\N2CCN(Cc3ccccc3Cl)CC2)c1", "Potency": "inactive"},
      {"smiles": "NCCN1CCN2C(=O)CN(C(=O)c3ccccc3)CC12", "note": "(centres undefined)", "Potency": "inactive"},
      {"smiles": "CCN(Cc1nc2cc(Cl)ccc2c(=O)[nH]1)C(=O)c1ccc(C)c(NC(=O)c2ccco2)c1", "Potency": "inconclusive [inhibitor, single point]"},
      {"smiles": "O=C(Nc1ccc(Cl)c([N+](=O)[O-])c1)c1ccc(NCCCN2CCOCC2)c([N+](=O)[O-])c1", "Potency": "active: 2.24 µM"},
      {"smiles": "C/C(=N\\OCC(=O)N/N=C/c1ccccc1O)c1cccs1", "Potency": "inconclusive [inhibitor, single point]"},
      {"smiles": "CCCOc1ccc(-c2c(C(=O)N/N=C/C3CCCCC3)nnn2-c2nonc2N)cc1", "Potency": "inactive"},
      {"smiles": "c1ccc(N2OCC3Cn4c(nc5ccccc54)C32)cc1", "note": "(centres undefined)", "Potency": "inactive"},
      {"smiles": "C=CCNC(=O)c1ccccc1NC(=O)c1cccc2ccccc12", "Potency": "inconclusive [inhibitor, partial curve]"},
      {"smiles": "O=C(NCC(c1ccco1)N1CCCC1)c1ccc(S(=O)(=O)Nc2ccccc2F)cc1", "note": "(centres undefined)", "Potency": "inconclusive [inhibitor, partial curve]"},
      {"smiles": "CC(C)NC[C@H](O)COc1cccc2[nH]ccc12", "Potency": "inconclusive [inhibitor, full curve, poor fit]"},
      {"smiles": "O=C1CNC(=O)/C1=C\\N1CCN(C(c2ccccc2)c2ccccc2)CC1", "Potency": "inconclusive [inhibitor, partial curve]"},
      {"smiles": "COc1cccc(C(=O)OCC(=O)NC2CCCc3ccccc32)c1O", "note": "(centres undefined)", "Potency": "inconclusive [inhibitor, single point]"},
      {"smiles": "COc1ccc(CCNC(=S)Nc2ccccc2C)cc1", "Potency": "inconclusive [inhibitor, single point]"},
      {"smiles": "CCN(CC)c1ccc(NC(=O)c2ccccc2F)cc1", "Potency": "inconclusive [inhibitor, partial curve]"},
      {"smiles": "CCOc1cc(/C=C2\\SC(=O)N(c3ccc(O)cc3)C2=O)ccc1O", "Potency": "inactive"},
      {"smiles": "COCCn1c(N)c(S(=O)(=O)c2cccs2)c2nc3ccccc3nc21", "Potency": "inactive"},
      {"smiles": "CN(C)c1cccc(C(=O)Nc2cc(C(F)(F)F)ccc2-n2cnc3ccccc32)c1", "Potency": "inactive"},
      {"smiles": "Cc1ccc(CN(N=Nc2nonc2N)c2nonc2N)c(C)c1", "Potency": "inconclusive [inhibitor, single point]"},
      {"smiles": "CC1CN(C)C(C)CC1NCc1ccc2c(c1)OCO2", "note": "(centres undefined)", "Potency": "inconclusive [inhibitor, single point]"},
      {"smiles": "Cc1cccn2c(=O)c3cc(C(N)=S)c(=N)n(CCCN4CCOCC4)c3nc12", "Potency": "inconclusive [inhibitor, partial curve]"},
      {"smiles": "CCOC(=O)c1ccc(NC(=S)N(CCCN2CCN(C)CC2)Cc2cccs2)cc1", "Potency": "inconclusive [inhibitor, single point]"},
      {"smiles": "Cc1ccc(C(=O)NCCc2ccccc2)cc1N1CCCC1=O", "Potency": "inactive"},
      {"smiles": "CCOC(=O)c1sc2ncn(C(C)C(=O)OCC)c(=O)c2c1C", "note": "(centres undefined)", "Potency": "inconclusive [inhibitor, single point]"},
      {"smiles": "O=C(O)C1CCN(c2ccc(S(=O)(=O)N3CCCCC3)cc2[N+](=O)[O-])CC1", "Potency": "inactive"},
      {"smiles": "COc1ccccc1/C=C(\\NC(=O)c1ccc(OC)c(OC)c1)C(=O)Nc1cc([N+](=O)[O-])ccc1C", "Potency": "inconclusive [inhibitor, partial curve]"},
      {"smiles": "Cc1cc(C)c(C(N)=O)c(SCC(=O)c2cc(C)c(C)cc2C)n1", "Potency": "inconclusive [inhibitor, partial curve]"},
      {"smiles": "Cc1ccc(C)c(N2CCN(C(=O)CCS(=O)(=O)c3ccc4c(c3)NC(=O)C(C)S4)CC2)c1", "note": "(centres undefined)", "Potency": "active: 2.82 µM"},
      {"smiles": "O=c1c(Cc2c(F)cccc2Cl)c(O)ccn1Cc1ccc(F)cc1", "Potency": "inconclusive [inhibitor, single point]"},
      {"smiles": "CC1=NN(/C(=N\\c2nnc(C)s2)Nc2ccc(C)cc2)[C@H](c2ccc(C)cc2)S1", "Potency": "inactive"},
      {"smiles": "CCCSC1=C(C#N)C(c2cccs2)C(C(=O)Nc2ccccc2)=C(C)N1", "note": "(centres undefined)", "Potency": "active: 11.2 µM"},
      {"smiles": "O=c1[nH]cnc2cc(-c3ccc(Br)cc3)sc12", "Potency": "inconclusive [inhibitor, single point]"},
      {"smiles": "CN=c1scc(C)n1/N=C/c1ccc(O)cc1O", "Potency": "inconclusive [inhibitor, single point]"},
      {"smiles": "Cc1cc(C(=O)CSc2ncn[nH]2)c(C)n1-c1cccc(S(=O)(=O)N2CCOCC2)c1", "Potency": "inconclusive [inhibitor, partial curve]"},
      {"smiles": "O=C(Oc1cccc(/C=N/Nc2nc(N3CCOCC3)nc(N3CCOCC3)n2)c1)c1ccco1", "Potency": "active: 1.12 µM"},
      {"smiles": "C/C(=N\\NC(=O)c1c(Br)c(C)nn1C)c1cccc(NC(=O)c2ccccc2C)c1", "Potency": "inconclusive [inhibitor, single point]"},
      {"smiles": "Cc1nc(NC(=O)/C=C/c2ccccc2)sc1C(=O)Nc1ccc(Cl)cc1", "Potency": "inactive"},
      {"smiles": "CCOc1cc(CNCCc2ccc(S(N)(=O)=O)cc2)ccc1OCC(=O)NC1CCCCC1", "Potency": "inconclusive [inhibitor, single point]"},
      {"smiles": "CCOC(=O)Nc1c(C(=O)OC)[nH]c2cc(OC)ccc12", "Potency": "active: 25.1 µM"},
      {"smiles": "Cc1ccc(CN(C(=O)c2cc(=O)c3cc(C)cc(C)c3o2)C2CCS(=O)(=O)C2)cc1", "note": "(centres undefined)", "Potency": "inactive"},
      {"smiles": "C/C(=N/NC(=O)c1ccc(Br)s1)c1ccncc1", "Potency": "inconclusive [inhibitor, single point]"},
      {"smiles": "C=CCNC(=O)c1onc(CSc2ccc(F)cc2)c1C(=O)NCC=C", "Potency": "inactive"},
      {"smiles": "CCC1(C)Cc2c(C#N)c(N)sc(=S)c2CO1", "note": "(centres undefined)", "Potency": "inconclusive [inhibitor, single point]"},
      {"smiles": "COC(=O)CCC(=O)OC1(C)C(=O)C=C2C=C(C3CC3)N(C3CCCCC3)C=C2C1=O", "note": "(centres undefined)", "Potency": "inconclusive [inhibitor, single point]"},
      {"smiles": "C=CCOc1ccc(/C=C/C(=O)OCC(=O)NCc2cccs2)cc1", "activity change, negative = inhibition": "inactive: 3.24% [at 8.37 µM]"},
      {"smiles": "COc1ccc(C)cc1S(=O)(=O)Nc1ccc(F)c(Cl)c1", "Potency": "inconclusive [inhibitor, single point]"},
      {"smiles": "CC(C)CCNC(=O)c1cnn2c(C(F)(F)F)cc(-c3ccco3)nc12", "Potency": "inconclusive [inhibitor, single point]"},
      {"smiles": "CCCCn1c(NCc2ccccc2NS(=O)(=O)c2ccc(C)cc2)nc2ccccc21", "Potency": "inconclusive [inhibitor, single point]"},
      {"smiles": "COC(=O)c1c(NC(=O)/C=C/c2ccc3c(c2)OCO3)sc(C)c1C", "Potency": "inactive"},
      {"smiles": "Cc1cc(OCCN2CCOCC2)ccc1Cl", "Potency": "inactive"},
      {"smiles": "CCOC(=O)c1nn(-c2ccc(F)cc2)c2c1CC/C2=C/c1ccccc1", "Potency": "inconclusive [inhibitor, single point]"},
      {"smiles": "Cc1ccc(C)c2c3c([nH]c12)-c1nonc1CC3", "Potency": "active: 10 µM"},
      {"smiles": "COc1cc(CC(NC(C)=O)C(=O)NC2CCN(c3nc(OC)nc(OC)n3)CC2)cc(OC)c1", "note": "(centres undefined)", "Potency": "inactive"},
      {"smiles": "CCN(CC)S(=O)(=O)c1cccc(NC(=O)COC(=O)c2cc(C)oc2C)c1", "Potency": "inconclusive [inhibitor, partial curve]"},
      {"smiles": "CN(C)C1=NCCN1CCCCc1ccccc1", "Potency": "inactive"},
      {"smiles": "CCCOc1ccc(Cn2cnc3ccccc32)cc1", "Potency": "inconclusive [inhibitor, partial curve]"},
      {"smiles": "CCN(c1ccccc1)S(=O)(=O)c1cccc(C(=O)N(C)CC(=O)Nc2ccc(F)c(F)c2F)c1", "Potency": "inconclusive [inhibitor, partial curve]"},
      {"smiles": "C/C(=N\\NC(=S)NC1CCCCC1)c1ccccc1", "Potency": "inactive"},
      {"smiles": "O=C1NC[C@H](c2ccccc2)N(CCC23CC4CC(CC(C4)C2)C3)C1=O", "Potency": "inactive"},
      {"smiles": "Cc1ccc(CNc2nc3ccccc3n3nnnc23)cc1", "Potency": "inactive"},
      {"smiles": "NS(=O)(=O)c1cc(C(=O)Nc2ccc3c(c2)OCCCO3)ccc1Cl", "Potency": "inactive"},
      {"smiles": "O=C1NC2(CCCCC2)C(=O)N1/N=C/c1ccccc1Br", "Potency": "inactive"},
      {"smiles": "CCN1CCc2nc(NC(=O)CC(c3ccccc3)c3ccccc3)sc2C1", "Potency": "inconclusive [inhibitor, partial curve]"},
      {"smiles": "O=C(NCCCN1CCOCC1)c1cc(S(=O)(=O)N2CCOCC2)ccc1Cl", "Potency": "inactive"},
      {"smiles": "O=C1C=C(N2CCOCC2)c2ccccc2C1=O", "Potency": "inconclusive [inhibitor, single point]"},
      {"smiles": "Cc1ccc(C(=O)NNC2=Nc3cccc4cccc2c34)cc1", "Potency": "inconclusive [inhibitor, single point]"}
    ]}
  ]
}
